Test results reported in the supplement of paper PMC11369174, “Proteome-scale characterisation of motif-based interactome rewiring by disease mutations” (Molecular Systems Biology, 2024).
The list shows a part of the results. The data scatter; read single values as rough.

Biological target: T1, AP2B1_adaptin__P63010_700_937
T1 chain: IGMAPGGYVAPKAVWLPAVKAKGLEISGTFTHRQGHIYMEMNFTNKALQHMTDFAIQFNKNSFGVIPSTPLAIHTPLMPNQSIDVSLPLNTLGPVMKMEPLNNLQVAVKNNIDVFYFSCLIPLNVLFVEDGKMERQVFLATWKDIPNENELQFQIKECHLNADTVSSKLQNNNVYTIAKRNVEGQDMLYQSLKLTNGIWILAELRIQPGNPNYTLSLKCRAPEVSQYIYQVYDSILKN
Assay: mutation enrichment score (mutant vs wild-type peptide binding to bait); baits are purified protein domains named by gene / domain / UniProt id / residues; peptides come from disordered regions of human proteins; higher = mutation enhances binding relative to wild type
Settings: number of wild-type / mutant comparisons summed (bounds the score): 6; paper call: no_effect; wild-type window: …
With LYTLWVTFQVLLYTSLPDFCLKFLPGYVGGIQEGAVTPAGV [H119L H119L] the mutation enrichment score was 3.

Biological target: T2, EPS15_EH__P42566_121_215
T2 chain: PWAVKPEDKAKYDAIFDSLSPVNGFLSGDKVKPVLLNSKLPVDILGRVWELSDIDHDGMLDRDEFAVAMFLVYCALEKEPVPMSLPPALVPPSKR
Assay: as above
Settings: number of wild-type / mutant comparisons summed (bounds the score): 6; paper call: no_effect; wild-type window: …
Binder LYTLWVTFQVLLYTSLPDFCLKFLPGYVGGIQEGAVTPAGV [H119L H119L] has a mutation enrichment score of 2.

Biological target: T1, AP2B1_adaptin__P63010_700_937
Assay: as above
Settings: number of wild-type / mutant comparisons summed (bounds the score): 12; paper call: enhanced; wild-type window: …
HHTSKIQEFADLTQVETFGFWGEALSSLCALSDVTISTCHA [R107W R107W] showed a mutation enrichment score of 10.

Same assay, conditions: number of wild-type / mutant comparisons summed (bounds the score): 12; paper call: no_effect; wild-type window: …
Binder EDRYEEEIKVLSDKLKEAETWAEFAERSVTKLEKSIDDLED [R238W R238W] has a mutation enrichment score of 4. NRKTSNGDDSLFFSNFSLLGAPVLKDINFKIERGQLLAVAG [T438A T438A] gave a mutation enrichment score of 3.1. NRSNCALFSTNLDWLVSKLDWLEASSGILEVLYCVLIESPE [R552W R552W] gave a mutation enrichment score of 4. Binder SHCDTFNNQPLCSENFLIAAMEAWGFQDPDTQ [V548M V548M] has a mutation enrichment score of -2.8.

These binders were tested against PTBP1_RRM_2_P26599_157_285 in the same assay as above. Settings: number of wild-type / mutant comparisons summed (bounds the score): 12; paper call: enhanced; wild-type window: ….
NRKTSNGDDSLFFSNFSLLGAPVLKDINFKIERGQLLAVAG [T438A T438A] was tested, and the mutation enrichment score was 5.9.

Biological target: T3, CSK21_Pkinase__P68400_1_335
T3 chain: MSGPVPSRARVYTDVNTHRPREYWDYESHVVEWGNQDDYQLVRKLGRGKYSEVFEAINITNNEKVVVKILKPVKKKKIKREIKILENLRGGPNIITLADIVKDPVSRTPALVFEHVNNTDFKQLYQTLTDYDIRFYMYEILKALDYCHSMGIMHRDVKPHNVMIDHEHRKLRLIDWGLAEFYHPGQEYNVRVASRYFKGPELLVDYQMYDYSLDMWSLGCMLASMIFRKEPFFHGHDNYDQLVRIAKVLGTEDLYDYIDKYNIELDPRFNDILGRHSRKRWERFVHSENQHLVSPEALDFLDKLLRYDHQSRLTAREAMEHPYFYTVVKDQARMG
Assay: as above
Settings: number of wild-type / mutant comparisons summed (bounds the score): 12; paper call: no_effect; wild-type window: …
In the case of NRSNCALFSTNLDWLVSKLDWLEASSGILEVLYCVLIESPE [R552W R552W], the mutation enrichment score is reported as 2.3.

Each binder was assayed against KPNA4_Arm__O00629_68_487 in the same assay as above. Settings: number of wild-type / mutant comparisons summed (bounds the score): 18; paper call: no_effect; wild-type window: ….
KPNA4_Arm__O00629_68_487, sequence (chain, as listed by the source): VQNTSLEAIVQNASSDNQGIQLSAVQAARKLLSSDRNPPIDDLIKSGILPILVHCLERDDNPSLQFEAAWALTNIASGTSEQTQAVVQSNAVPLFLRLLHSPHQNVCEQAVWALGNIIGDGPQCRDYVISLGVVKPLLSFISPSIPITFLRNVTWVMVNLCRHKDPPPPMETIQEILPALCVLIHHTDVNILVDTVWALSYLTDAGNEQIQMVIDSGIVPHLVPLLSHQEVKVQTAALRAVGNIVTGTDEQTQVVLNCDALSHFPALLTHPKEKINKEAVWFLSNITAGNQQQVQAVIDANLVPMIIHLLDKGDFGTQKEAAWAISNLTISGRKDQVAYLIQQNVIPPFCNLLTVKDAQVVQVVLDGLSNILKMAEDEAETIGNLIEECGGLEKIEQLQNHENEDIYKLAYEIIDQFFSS
NRSNCALFSTNLDWLVSKLDWLEASSGILEVLYCVLIESPE [R552W R552W] was tested, and the mutation enrichment score was -2.

Biological target: T1, AP2B1_adaptin__P63010_700_937
Assay: as above
Settings: number of wild-type / mutant comparisons summed (bounds the score): 18; paper call: enhanced; wild-type window: …
RERTPCAETPAEPVDWAFAQHELLEKQGIDMKQEMEQRLQE [R624H R624H] showed a mutation enrichment score of 5.9.

Biological target: T4, AP2_Mu__Q96CW1_160_435
T4 chain: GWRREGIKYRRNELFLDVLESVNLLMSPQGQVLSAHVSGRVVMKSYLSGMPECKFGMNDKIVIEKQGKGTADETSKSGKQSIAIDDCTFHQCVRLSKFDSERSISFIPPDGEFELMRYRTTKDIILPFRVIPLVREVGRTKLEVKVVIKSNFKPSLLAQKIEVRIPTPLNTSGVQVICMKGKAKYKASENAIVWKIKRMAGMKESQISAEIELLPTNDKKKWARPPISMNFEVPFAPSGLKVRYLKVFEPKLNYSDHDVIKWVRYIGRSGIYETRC
Assay: as above
Settings: number of wild-type / mutant comparisons summed (bounds the score): 6; paper call: diminished; wild-type window: …
Work on HDRDLLVGAAKHGVSRTDYHNLNDPELSFLDAHKNFAQNRG [I2116N I2116N] yielded a mutation enrichment score of -6.

Same assay, conditions: number of wild-type / mutant comparisons summed (bounds the score): 6; paper call: enhanced; wild-type window: …
With DEYQELLDIKLALDMEIHAYHKLLEGEEERLRLSPSPTSQR [R377H R377H] the mutation enrichment score was 6. Work on MWEIYSLGKMPYERFTNSETDEHIAQGLRLYRPHLASEKVY [A607D A607D] yielded a mutation enrichment score of 6. LGKMPYERFTNSETAEHIAQDLRLYRPHLASEKVYTIMYSC [G613D G613D] showed a mutation enrichment score of 6. AFGVLMWEIYSLGKMPYERFINSETAEHIAQGLRLYRPHLA [T602I T602I] showed a mutation enrichment score of 6.

Same assay, conditions: number of wild-type / mutant comparisons summed (bounds the score): 6; paper call: no_effect; wild-type window: …
RDLLVGAAKHGVSRTDYHILSDPELSFLDAHKNFAQNRGAG [N2118S N2118S] gave a mutation enrichment score of -4.9. ESDEVNEGELKEIKQDISSLCYELLEEKSQNTEDLAELIRE [R895C R895C] showed a mutation enrichment score of -1. ESDEVNEGELKEIKQDISSLLYELLEEKSQNTEDLAELIRE [R895L R895L] was tested, and the mutation enrichment score was -1. In the case of NDHFDTYADALWWGLITLTTNGYGDKYPQTWNGRLLAATFT [I278N I278N], the mutation enrichment score is reported as 0. GENDHFDTYADALWWGLITLITIGYGDKYPQTWNGRLLAAT [T276I T276I] gave a mutation enrichment score of 0. With QQNQEYKILLDVKTRLEQEITTYRRLLEGEDAHLSSSQFSS [A413T A413T] the mutation enrichment score was 2. For LDVKTRLEQEIATYRRLLEGKDAHLSSSQFSSGSQSSRDVT [E422K E422K], the mutation enrichment score was 0. Binder EYKILLDVKTRLEQEIATYRPLLEGEDAHLSSSQFSSGSQS [R417P R417P] has a mutation enrichment score of 5. With DEYQELLDIKLALDMEIHAYLKLLEGEEERLRLSPSPTSQR [R377L R377L] the mutation enrichment score was 1. Binder KLALDMEIHAYRKLLEGEEETLRLSPSPTSQRSRGRASSHS [R386T R386T] has a mutation enrichment score of 3. NYCTSGAYSNASSTDSASYYLLTGDTRLELELRPTGEIEQY [P994L P994L] gave a mutation enrichment score of 3.5. With DWYPHSRLFDQAFGLPRLPEKWSQWLGGSSWPGYVRPLPPA [E41K E41K] the mutation enrichment score was -2.

Biological target: T5, EPHB2_Pkinase__P29323_604_898
T5 chain: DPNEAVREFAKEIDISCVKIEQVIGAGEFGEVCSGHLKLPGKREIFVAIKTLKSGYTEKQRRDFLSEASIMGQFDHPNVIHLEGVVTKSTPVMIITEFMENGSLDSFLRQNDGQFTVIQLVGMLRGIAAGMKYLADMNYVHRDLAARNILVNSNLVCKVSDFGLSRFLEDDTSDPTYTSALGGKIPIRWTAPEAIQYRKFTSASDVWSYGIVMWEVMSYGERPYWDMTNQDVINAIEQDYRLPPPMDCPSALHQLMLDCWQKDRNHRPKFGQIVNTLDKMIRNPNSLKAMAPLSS
Assay: as above
Settings: number of wild-type / mutant comparisons summed (bounds the score): 12; paper call: no_effect; wild-type window: …
With NDHFDTYADALWWGLITLTTNGYGDKYPQTWNGRLLAATFT [I278N I278N] the mutation enrichment score was -1.

Biological target: T6, PEX14_Pex14__O75381_16_84
T6 chain: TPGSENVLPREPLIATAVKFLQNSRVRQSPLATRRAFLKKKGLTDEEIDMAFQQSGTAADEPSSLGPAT
Assay: as above
Settings: number of wild-type / mutant comparisons summed (bounds the score): 6; paper call: no_effect; wild-type window: …
NDHFDTYADALWWGLITLTTNGYGDKYPQTWNGRLLAATFT [I278N I278N] gave a mutation enrichment score of 3.

Biological target: T5, EPHB2_Pkinase__P29323_604_898
Assay: as above
Settings: number of wild-type / mutant comparisons summed (bounds the score): 6; paper call: no_effect; wild-type window: …
GENDHFDTYADALWWGLITLITIGYGDKYPQTWNGRLLAAT [T276I T276I] was tested, and the mutation enrichment score was -1.

What follows are binders tested against EZR_FERM_1_P15311_2_295 in the same assay as above. Settings: number of wild-type / mutant comparisons summed (bounds the score): 5; paper call: no_effect; wild-type window: ….
EZR_FERM_1_P15311_2_295, sequence (chain, as listed by the source): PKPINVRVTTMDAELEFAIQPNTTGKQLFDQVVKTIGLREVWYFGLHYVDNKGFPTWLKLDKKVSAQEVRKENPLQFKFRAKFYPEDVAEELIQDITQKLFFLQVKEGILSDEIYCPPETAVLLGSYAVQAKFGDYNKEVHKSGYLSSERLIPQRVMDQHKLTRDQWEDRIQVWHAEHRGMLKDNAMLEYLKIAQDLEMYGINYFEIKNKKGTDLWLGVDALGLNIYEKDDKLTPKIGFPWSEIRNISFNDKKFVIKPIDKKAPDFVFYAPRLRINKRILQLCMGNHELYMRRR
In the case of GENDHFDTYADALWWGLITLITIGYGDKYPQTWNGRLLAAT [T276I T276I], the mutation enrichment score is reported as 0.

Same assay, conditions: number of wild-type / mutant comparisons summed (bounds the score): 10; paper call: no_effect; wild-type window: …
Binder NYCTSGAYSNASSTDSASYYLLTGDTRLELELRPTGEIEQY [P994L P994L] has a mutation enrichment score of 2.

Biological target: T7, RDX_FERM_1_P35241_5_295
T7 chain: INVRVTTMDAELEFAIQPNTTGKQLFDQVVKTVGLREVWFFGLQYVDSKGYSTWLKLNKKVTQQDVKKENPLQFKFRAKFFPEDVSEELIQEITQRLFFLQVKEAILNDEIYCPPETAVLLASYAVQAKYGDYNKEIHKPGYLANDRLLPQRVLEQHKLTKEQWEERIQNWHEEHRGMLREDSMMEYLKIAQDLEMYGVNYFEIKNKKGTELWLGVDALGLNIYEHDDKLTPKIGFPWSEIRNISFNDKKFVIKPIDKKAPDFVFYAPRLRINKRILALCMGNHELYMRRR
Assay: as above
Settings: number of wild-type / mutant comparisons summed (bounds the score): 12; paper call: no_effect; wild-type window: …
For NYCTSGAYSNASSTDSASYYLLTGDTRLELELRPTGEIEQY [P994L P994L], the mutation enrichment score was 5.

Biological target: T8, AURKA_Pkinase-merged__O14965_125_391
T8 chain: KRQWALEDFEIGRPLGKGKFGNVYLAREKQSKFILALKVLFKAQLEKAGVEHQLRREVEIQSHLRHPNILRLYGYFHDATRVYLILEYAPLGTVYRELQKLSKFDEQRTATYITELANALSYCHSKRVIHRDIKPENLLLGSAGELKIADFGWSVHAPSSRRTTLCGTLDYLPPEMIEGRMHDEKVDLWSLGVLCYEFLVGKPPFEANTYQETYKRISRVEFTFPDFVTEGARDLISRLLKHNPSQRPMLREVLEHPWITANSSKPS
Assay: as above
Settings: number of wild-type / mutant comparisons summed (bounds the score): 6; paper call: diminished; wild-type window: …
In the case of DWYPHSRLFDQAFGLPRLPEKWSQWLGGSSWPGYVRPLPPA [E41K E41K], the mutation enrichment score is reported as -6.
